From PubChem BioAssay AID686978 (National Center for Advancing Translational Sciences (NCATS), 2013)
The campaign covered roughly 420,000 compounds. About 64,000 (15%) were called active. Inconclusive results, whose numbers are uncertain, are shown with a selection of clear calls. Calls follow the shape of the dose curve; as a rule, active = well fitted inhibition curve with a large enough effect; inconclusive = small, poorly fitted or top-dose-only effect; inactive = flat fitted curve, though single readings scatter. No potency is given beside an inconclusive call; the fits are too rough.

experiment: qHTS for Inhibitors of human tyrosyl-DNA phosphodiesterase 1 (TDP1): qHTS in cells in absence of CPT; conditions: DT40 Tdp1-/- hTDP1 cells, no CPT, ATP luminescence, 48 h; series mostly up to 46.2 µM; also: nearly all actives have a fitted effect of over 55% in size
Summary of the method: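 Growth kinetics read by CellTiter-Glo luminescence after ≥48 hr at 37 °C. Cells: DT40 Tdp1-/- stably carrying human TDP1, 400 per well, compound exposure in the absence of CPT (DMSO vehicle).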
Potency is read from the fitted curve at half-maximal effect; tags tell the direction and shape of the fitted curve.

| SMILES | Potency |
| --- | --- |
| CC(=O)Oc1ccc2c(=O)c(Oc3ccccc3)c(C)oc2c1OC(C)=O | inconclusive [inhibitor, single point] |
| CC(C)Cc1ccc(C(C)NC(=O)Cc2ccc(S(=O)(=O)N3CCOCC3)s2)cc1 (stereo not given) | inconclusive [inhibitor, single point] |
| COc1ccc(-c2cn3c(C)c(C(=O)N4CCN(c5ccccc5F)CC4)sc3n2)cc1 | active: 18.4 µM |
| CC#CC[N+](C)(C)CCCCCC | inconclusive [inhibitor, partial curve] |
| Cc1nc2nc(NCc3cccc(Br)c3)[nH]n2c(=O)c1Cc1ccccc1 | inconclusive [inhibitor, single point] |
| CCN(CC(=O)Nc1ccc(Br)cc1)C(=O)Cc1cccc(F)c1 | inactive |
| CC(=O)Nc1ccc(/C=N/Nc2nc3ccccc3[nH]2)cc1 | inactive |
| NC(=O)c1cc(Sc2ccccc2)nc2ccccc12 | inconclusive [inhibitor, partial curve] |
| Cc1ccc(C2C(C#N)=C(N)Oc3cc(N)ccc32)cc1 (stereo not given) | inactive |
| O=S(=O)(NCc1ccccc1)c1ccc(NC(=S)NCc2ccco2)cc1 | active: 11.6 µM |
| COc1ccc(S(=O)(=O)N(C)c2ccc(C(=O)NCc3ccccn3)cc2)cc1OC | inactive |
| COc1ccc(NC(=O)c2cc3c(CO)cnc(C)c3oc2=Nc2cccc(C)c2)c(OC)c1 | active: 4.11 µM |
| COc1ccc(N2CCN(C(CNC(=O)C(=O)NCc3cccs3)c3ccco3)CC2)cc1 (stereo not given) | inactive |
| O=C(CN1C(=O)c2cccnc2Oc2ccc(Cl)cc21)NC1CCCC1 | active: 14.6 µM |
| O=C(Nc1ccc(N2CCOCC2)cc1)c1cccc(S(=O)(=O)N2CCCCC2)c1 | active: 14.6 µM |
| COc1nc(-c2ccccc2)ncc1S(=O)(=O)c1ccccc1 | inconclusive [inhibitor, single point] |
| CC(=O)OC1(C)C=Cc2ccccc2C1=NS(=O)(=O)c1ccccc1 (stereo not given) | active: 23.1 µM |
| COc1ccc(-c2cc3cc(-c4cc(OC)c(OC)c(OC)c4)ccc3o2)cc1 | inactive |
| O=C(NCCOC12CC3CC(CC(C3)C1)C2)c1cccc(Br)c1 | inconclusive [inhibitor, single point] |
| Cc1ccc(CN(C(=O)COc2cccc([N+](=O)[O-])c2)c2ccccn2)o1 | inconclusive [inhibitor, partial curve] |
| COc1ccccc1CN1CCCC(n2cc(C(=O)N3CCCC3)nn2)C1 (stereo not given) | inconclusive [inhibitor, single point] |
| COc1ccc(/C=C/c2nnc(NC(=O)COc3cccc(C)c3)s2)cc1 | inconclusive [inhibitor, single point] |
| CCOc1ccc(N(CC(=O)NC2CCCC(C)C2C)S(=O)(=O)c2c(C)noc2C)cc1 (stereo not given) | inconclusive [inhibitor, single point] |
| N#CCCN1CCN(C(=S)c2ccc(-c3cc(Cl)ccc3Cl)o2)CC1 | inconclusive [inhibitor, partial curve] |

| SMILES | Potency |
| --- | --- |
| COc1ccc(NC(=O)CN(C)C(=O)c2cccc(Oc3ccccc3)c2)cc1 | inconclusive [inhibitor, single point] |
| O=C1/C(=C/c2cccc(F)c2)Oc2cc(O)ccc21 | inconclusive [inhibitor, partial curve] |
| COc1ccccc1C(=O)Nc1cccc(NC(=O)c2ccccc2OC)n1 | inconclusive [inhibitor, partial curve] |
| O=C(CCN1CCOCC1)NC1CCCN(Cc2ccccc2F)C1 (stereo not given) | inactive |
| COc1cc(/C=C2\Oc3ccc(C#Cc4ccc(O)cc4)cc3C2=O)cc(OC)c1 | inconclusive [inhibitor, partial curve] |
| CCOC(=O)c1cccc(NC(=O)C(CC(C)C)N2Cc3ccccc3C2=O)c1 (stereo not given) | inconclusive [inhibitor, full curve, poor fit] |
| O=C(O)c1ccc(N/N=C/c2cccc3cccnc23)cc1 | inactive |
| CNc1nc(N)c([N+](=O)[O-])c(Nc2ccccc2OC)n1 | active: 20.6 µM |
| COC(=O)C1=CO[C@@H](O[C@H]2OC(CO)C(O)C(O)C2O)C2C1CC(O)C2C (stereo not given in full) | inactive |
| CCC(NC(=O)Cc1cccs1)c1ccccc1 (stereo not given) | inactive |
| O=C(Cc1ccccc1Cl)Nc1cccc(S(=O)(=O)N2CCCCCC2)c1 | inactive |
| COc1cccc(NC(=O)c2ccc(NC(=O)C(C)(C)C)cc2)c1 | inconclusive [inhibitor, partial curve] |
| Cc1cccc(-c2nc(CS(=O)CC(=O)NCc3cccs3)c(C)o2)c1 (stereo not given) | inconclusive [inhibitor, partial curve] |
| CCC(=O)N1CCc2cc(Br)cc(S(=O)(=O)N3CCCC(C(=O)Nc4ccc(OC)c(Cl)c4)C3)c21 (stereo not given) | inconclusive [inhibitor, full curve, poor fit] |
| COc1ccccc1CNC(=O)N1CCN(c2ccccc2Cl)CC1 | inconclusive [inhibitor, single point] |
| O=S(=O)(c1cccs1)N1CCN(c2ccccc2Cl)CC1 | inconclusive [inhibitor, single point] |
| Cn1nnnc1SCCNCc1ccc(F)cc1 | inconclusive [inhibitor, single point] |
| Cc1ccc(C)c(-n2cc(CNCCc3cnccn3)c(-c3ccccc3)n2)c1 | inconclusive [inhibitor, single point] |
| Cc1ccc(Nc2nnc(SCc3cc(=O)n4ccsc4n3)s2)c(C)c1 | inconclusive [inhibitor, partial curve] |
| COc1ccc(/C=N/Nc2nncn2N)cc1Br | inconclusive [inhibitor, single point] |
| CCOc1ccc(C(=O)N2CCN(CCc3ccccc3)CC2)cc1OCC | inconclusive [inhibitor, single point] |
| COc1ccc(OC)c(CNC(=O)CCCn2ccc3cc(S(=O)(=O)N4CCCC4)ccc32)c1 | inconclusive [inhibitor, single point] |
| C=CCn1c(SCC(=O)Nc2ccc3c(c2)OCO3)nnc1-c1cc(Br)ccc1O | inconclusive [inhibitor, single point] |
| COCCCNC(=O)COc1cc2c(c3oc(=O)c(C)c(C)c13)CCC(C)(C)O2 | active: 2.06 µM |

| SMILES | Potency |
| --- | --- |
| O=C(Nc1ccc2nc3ccccc3nc2c1)c1ccc(Br)cc1 | inconclusive [inhibitor, partial curve] |
| O=C(CCl)Nc1nc(-c2ccco2)c(-c2ccco2)s1 | inconclusive [inhibitor, single point] |
| CC(C)OC(=O)Cn1nc(C(c2ccccc2)c2ccccc2)oc1=O | inconclusive [inhibitor, partial curve, poor fit] |
| S=c1[nH]nc(CSCc2ccccc2Cl)n1C1CCCCC1 | inconclusive [inhibitor, single point] |
| COc1ccc(CNC(=O)c2cccc(C)c2[N+](=O)[O-])cc1 | inconclusive [inhibitor, full curve] |
| COc1ccc(N2CCN(CCNC(=O)Nc3cc(Cl)ccc3OC)CC2)cc1 | inconclusive [inhibitor, single point] |
| CSCCC(NS(=O)(=O)c1cccs1)C(=O)NCc1ccc(C)cc1 (stereo not given) | inconclusive [inhibitor, partial curve] |
| CCNc1nc(NCC)nc(N(C)N)n1 | inconclusive [inhibitor, single point] |
| CSc1ccccc1C(=O)NCCCOC(C)C | inactive |
| CCn1c2ccccc2c2nnc(SCCN3CCCCC3)nc21 | inconclusive [inhibitor, single point] |
| N=c1c2c(ncn1CCN1CCOCC1)Oc1ccc3ccccc3c1C2c1ccccc1 (stereo not given) | inactive |
| COc1ccc(-n2c(=O)c(C)nc3cnc(Oc4cccc(Cl)c4)nc32)cc1 | inconclusive [inhibitor, single point] |
| COc1ccccc1Nc1nn2c(=O)c3ccc(C(=O)NCCCOC(C)C)cc3nc2s1 | active: 4.11 µM |
| CCn1c(N2CCN(CC(=O)c3c[nH]c4ccccc34)CC2)nc2c1c(=O)[nH]c(=O)n2C | inactive |
| COc1ccc(N2C(=O)N3[C@H](c4ccc(Cl)cc4)[C@@H]4C(=O)N(C5CCCCC5)C(=O)[C@@H]4[C@]3(C)C2=O)cc1 | inconclusive [inhibitor, single point] |
| CCOc1ccc(CNC(=O)CCC(=O)N2CC(C)Sc3ccccc32)cc1 (stereo not given) | inconclusive [inhibitor, single point] |
| O=C(CSc1nccn1-c1ccccc1)Nc1nc2ccccc2s1 | inconclusive [inhibitor, single point] |
| COCCN(C(=O)COC(=O)CNC(=O)c1cccs1)c1c(N)n(Cc2ccccc2)c(=O)[nH]c1=O | inactive |
| CCOc1ccc(CCNC(=O)CCCn2nc(C)c3sc4ccccc4c3c2=O)cc1OCC | active: 18.4 µM |
| COc1ccc(-n2c(COc3ccc(Cl)cc3)nnc2SCc2ccc(C#N)cc2)cc1 | active: 23.1 µM |
| CC(=O)Nc1ccc(C(=O)OCC(=O)Nc2ccccc2Sc2ccccc2)cc1 | inconclusive [inhibitor, single point] |
| c1ccc(CNc2nc(-c3cccs3)nc3ccccc23)nc1 | inconclusive [inhibitor, single point] |
